Among all 50,000 compounds or so, about 800 (1.6%) showed an effect of 50% or more. The list shows a part of the results.
These compounds were tested against Bcl-2-like protein 10 (Homo sapiens) (UniProt Q9HD36) (assay: TR3 peptide-Bcl-B binding displacers, biochemical primary FP assay, phenotype converters (AID 1240;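 note: 0% = Bcl-B with tracer peptide and DMSO and 100% = tracer peptide lacking Bcl-B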)). Details: GST-Bcl-B / FITC-TR3 peptide fluorescence polarization; stronger effect = higher value; compound at 3.75 mg/L.
UniProt Q9HD36, sequence (Q9HD36 whole entry, looked up): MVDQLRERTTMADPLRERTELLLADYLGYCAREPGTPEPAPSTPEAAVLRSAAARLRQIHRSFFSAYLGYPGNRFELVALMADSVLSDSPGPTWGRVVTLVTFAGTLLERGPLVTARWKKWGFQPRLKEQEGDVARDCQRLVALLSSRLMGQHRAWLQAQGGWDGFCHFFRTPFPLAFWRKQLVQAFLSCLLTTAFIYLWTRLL

| SMILES | displacement |
| --- | --- |
| O=C(Nc1cccc(-c2nc3ccccc3s2)c1)c1ccc(Cl)cc1Cl | 2% |
| O=C1C=C(C(c2ccccc2)c2ccccc2)C(=O)c2ccccc21 | 11.7% |
| COc1ccc(C(=O)NC2CCC(CC3CCC(NC(=O)c4ccc(OC)c(OC)c4)CC3)CC2)cc1OC (stereo not drawn) | 8.9% |
| Cc1cc(C)nc(Nc2nc3ccccc3[nH]2)n1 | 13.9% |
| COc1cc(/C=C2\C(=O)NC(=O)N(c3ccc(Cl)cc3)C2=O)c(Br)cc1O | 2.7% |
| CC(C)C12CN3CC(C(C)C)(CN(C1)C3c1ccc(O)cc1O)C2=O (stereo not drawn) | 7.8% |
| Cc1ccc(S(=O)(=O)N2CCN(Cc3cccn3C)CC2)cc1 | -1.2% |
| COc1cccc(C2NC(=O)NC(C)=C2C(=O)OCCc2ccccc2)c1OC (stereo not drawn) | 0.6% |
| CCCCOc1ccc(C(=O)Nc2sc(C)c(CC)c2C(N)=O)cc1 | 9% |
| CCOc1cc(/C=C2/SC(=S)N(CC)C2=O)ccc1OCc1ccc(Cl)cc1 | 24.7% |
| Cc1ccc(N(CC(=O)N2CCOCC2)S(=O)(=O)c2ccc(F)cc2)cc1 | 7% |
| CC(=O)Oc1ccc2c3c(c(=O)oc2c1OC(C)=O)CCCC3 | 4.4% |
| Cc1cccc(N2C(=O)c3ccc(-c4nc5ccccc5c(=O)o4)cc3C2=O)c1C | 6.9% |
| Cc1cc(S(=O)(=O)c2ccc(Cl)cc2)c(C)c(S(=O)(=O)N2CCOCC2)c1 | -5.1% |
| CC(C)c1c(O)nc(SCCN(C)C)[nH]c1=O | -52.5% |
| O=S(=O)(/C=C/c1ccccc1)N1CCN(C/C=C/c2ccccc2)CC1 | -16.6% |
| Cc1ccc(NC(=O)C(=O)N/N=C/c2cccs2)cc1C | 6.4% |
| COc1ccc(OC)c(N2C(=O)C3C4C=CC(CC4)C3C2=O)c1 (stereo not drawn) | -6% |
| COc1ccc(CCNC(=O)N2C(=O)C=CC2=O)cc1OC | -4.6% |
| O=C(Nc1cc(C(F)(F)F)cc(C(F)(F)F)c1)c1ccc(Br)o1 | -2.9% |
| COc1ccc(/C=C/c2cc[n+](C)cc2)cc1 | 0.7% |
| COc1cccc(N2C(=O)C(=O)/C(=C(\O)c3ccccc3)C2c2ccc(F)cc2)c1 (stereo not drawn) | 2.1% |
| Clc1ccccc1-c1nc(-c2ccccn2)no1 | -8.5% |

| SMILES | displacement |
| --- | --- |
| CCOc1ccc(S(=O)(=O)N(CC(=O)Nc2ccc(Cl)cc2)c2ccc(C)cc2)cc1 | 14.1% |
| COc1ccc(N2C(=O)/C(=C\c3ccccc3C)SC2=S)cc1 | 1.6% |
| O=C(CSc1nc2sc3c(c2c(=O)n1-c1ccccc1)CCC3)Nc1ccccc1[N+](=O)[O-] | -2.8% |
| O=C(Nc1cccc(CCc2ccccn2)c1)Nc1cccc2ccccc12 | -0.7% |
| Cc1cccc(C(=O)Nc2ccc(S(=O)(=O)Nc3nccs3)cc2)c1 | 9.9% |
| O=C(COc1ccccc1[N+](=O)[O-])Nc1ccc2oc(-c3cccc(F)c3)nc2c1 | 8.3% |
| Cc1onc(-c2ccccc2Cl)c1C(=O)Nc1ccc(C(C)C)cc1 | 10.1% |
| COc1ccc(C2NC(=S)NC(C)=C2C(=O)Nc2ccc(Cl)cc2)cc1OC (stereo not drawn) | -5.7% |
| CCN1C(=O)/C(=C\c2cc(OC)c(OC)c(OC)c2)SC1=S | -6.5% |
| O=C(NNS(=O)(=O)c1ccc2ccccc2c1)c1ccc(Cl)cc1 | -4.5% |
| CCOC(=O)C1C(=O)C=C(Nc2ccc(OC)cc2)CC1c1ccccc1 (stereo not drawn) | 2.2% |
| O=C(N/N=C/c1ccco1)c1cc(-c2ccc3ccccc3c2)n[nH]1 | -13.5% |
| C=C(C)CN1CCN(S(=O)(=O)c2ccc3c(c2)Cc2cc(S(=O)(=O)N4CCN(CC(=C)C)CC4)ccc2-3)CC1 | 31.6% |
| Cc1ccc2nc(-c3ccc(N)cc3)oc2c1 | 11.1% |
| Cc1ccc(C(=O)/C=C/Nc2cccc(O)c2)cc1 | -0.4% |
| COc1ccccc1/C=C1\C(=O)NC(=S)N(c2ccc(Br)cc2)C1=O | 13.6% |
| O=C1S/C(=C\c2ccco2)C(=O)N1Cc1ccccc1 | -6% |
| Cc1cc(C)cc(N2C(=O)NC(=O)/C(=C\c3cc(Br)c(O)c([N+](=O)[O-])c3)C2=O)c1 | 3.6% |
| CC(=O)c1ccc(NC(=O)/C=C/c2cccc([N+](=O)[O-])c2)cc1 | 3% |
| Cn1c(=O)c2c(nc(NCc3ccccc3)n2C)n(C)c1=O | -2.7% |
| CCOC(=O)C(=CNc1ccc(C(C)C)cc1)C(=O)OCC | -3.8% |
| O=C(CN1C(=O)/C(=C/c2ccccc2)SC1=S)Nc1cccc(O)c1 | 35.7% |
| COc1ccc2oc(C)c(C(=O)O)c2c1 | 22.6% |

| SMILES | displacement |
| --- | --- |
| CCOC(=O)Nc1ccc(Br)cc1C(c1ccccc1)N(CC(=O)OC)C(=O)OCC (stereo not drawn) | 21.2% |
| CCCn1c(C(O)c2ccc(N(C)C)cc2)nc2ccccc21 (stereo not drawn) | 5.3% |
| COC(=O)COc1c(Cl)cc(/C=C(/C#N)C(=O)Nc2cccc(Br)c2)cc1Cl | -15.1% |
| COc1ccc(-n2c(=O)c3c4c(sc3n3c(SCCC(C)C)nnc23)CCCC4)cc1 | 89.8% |
| O=C(O)c1ccc2c(c1)C(=O)N(c1ccc(S)cc1)C2=O | -9.6% |
| Cc1ccc(C23CC4CC(CC(C(=O)Nc5ccccn5)(C4)C2)C3)cc1 | -10.1% |
| COc1ccc(S(=O)(=O)Nc2ccc(C(=O)Nc3ccccc3)cc2)cc1Br | 11.8% |
| Cc1c(OCc2ccc(F)cc2)ccc2c1oc(=O)c1ccccc12 | 10% |
| COc1cc2c(cc1OC)C(c1ccc(Br)cc1)OC1=C2C(=O)c2ccccc21 (stereo not drawn) | 0.4% |
| COc1ccc(CSc2nnc3nc(C)cc(C)n23)cc1 | 27.4% |
| COC(=O)/C(=C/c1ccccc1)C(C)=O | 7.6% |
| Cc1cc(Cl)ccc1OCC(=O)NNC(=O)c1cc(Cl)ccc1O | -4.7% |
| COc1ccc(C(=O)Nc2ccc(OC(F)(F)F)cc2)cc1 | -3.2% |
| Cc1cccc(/C(N)=N/OC(=O)COc2ccccc2C)c1 | -7.2% |
| COc1cc2ccccc2cc1C(=O)Nc1cccc(-c2cc3ccccc3oc2=O)c1 | 2% |
| Cc1cc2nc(-c3ccc(C)c(NC(=O)c4ccc([N+](=O)[O-])cc4Cl)c3)oc2cc1C | 8.7% |
| CC(C)(C)c1cc(Cc2ccccc2)[nH]n1 | 5.9% |
| COc1cc(C2SCC(=O)N2CCc2ccc(OC)c(OC)c2)ccc1O (stereo not drawn) | 0% |
| Nc1ccc(C(=O)CC2(O)C(=O)Nc3ccccc32)cc1 (stereo not drawn) | 6.5% |
| CCN(CC)S(=O)(=O)c1cc(C(N)=O)ccc1Br | -2.5% |
| Cc1ccc(C(=O)Nc2sc3c(c2C(=O)N2CCOCC2)CCC(C)C3)cc1 (stereo not drawn) | 1.7% |
| O=C(CSc1nc2ccc(N3C(=O)c4ccccc4C3=O)cc2s1)NCCOc1ccccc1 | 0.1% |

From PubChem BioAssay AID1240 (Sanford-Burnham Center for Chemical Genomics, 2008)
